Data on 10 molecules can be found in patent publication US20240269278A1, “ANTI-CD47 ANTIBODY FOR COMBINED TREATMENT OF BLOOD TUMOR” (Nanjing Shunxin Pharmaceuticals Co., Ltd. of Chiatai …, priority 2021, published 2024).

To fix the notation:
B1: hz16E5-1.1: humanized anti-CD47 antibody, heavy chain SEQ ID NO: 157, light chain SEQ ID NO: 159 (antibody)
heavy: QVQLVQSGAEVKKPGASVKVSCKASGYTFTNYGMNWVRQAPGQGLEWMGWINTNTGEPTYAQKLQGRVTMTLDTSTRTAYMELRSLRSDDTAVYYCARFSHLRGPMDYWGQGTLVTVSSASTKGPSVFPLAPCSRSTSESTAALGCLVKDYFPEPVTVSWNSGALTSGVHTFPAVLQSSGLYSLSSVVTVPSSSLGTKTYTCNVDHKPSNTKVDKRV[omitted - human IgG4 Fc with S228P (EU numbers)]
light: DIQMTQSPSSLSASVGDRVTITCRSSQSLVHSNGYTYLHWYQQKPGKAPKLLIYKVSNRFSGVPSRFSGSGSGTDFTLTISSLQPEDFATYYCSQSTHVPPTFGQGTKLEIKRTVAAPSVFIFPPSDEQLKSGTASVVCLLNNFYPREAKVQWKVDNALQSGNSQESVTEQDSKDSTYSLSSTLTLSKADYEKHKVYACEVTHQGLSSPVTKSFNRGEC
modifications: heavy chain; light chain
B2: hz16E5-3.1: humanized anti-CD47 antibody, heavy chain SEQ ID NO: 173, light chain SEQ ID NO: 175 (antibody)
heavy: B1 heavy
light: B1 light with I2A
modifications: heavy chain; light chain
B3: hz3F10-2.2: humanized anti-CD47 antibody, heavy chain SEQ ID NO: 137, light chain SEQ ID NO: 139 (antibody)
heavy: QVQLVQSGAEVKKPGSSVKVSCKASGYTFSRYWIEWVRQAPGQGLEWMGEFIPGSDTTNYAQKFQGRVTITAEISTNTAYMELSSLRSEDTAVYYCARGGLRRMDYWGQGTLVTVSSASTKGPSVFPLAPCSRSTSESTAALGCLVKDYFPEPVTVSWNSGALTSGVHTFPAVLQSSGLYSLSSVVTVPSSSLGTKTYTCNVDHKPSNTKVDKRV[omitted - human IgG4 Fc with S228P (EU numbers)]
light: DIQMTQSPSSLSASVGDRVTITCRASSSVSSTYLHWYQQKPGKAPKLLIYTTSTLASGVPSRFSGSGSGTDFTLTISSLQPEDFATYYCQQFSESTWTFGQGTKLEIKRTVAAPSVFIFPPSDEQLKSGTASVVCLLNNFYPREAKVQWKVDNALQSGNSQESVTEQDSKDSTYSLSSTLTLSKADYEKHKVYACEVTHQGLSSPVTKSFNRGEC
modifications: heavy chain; light chain
B4: hz3F10-2.1: humanized anti-CD47 antibody, heavy chain SEQ ID NO: 113, light chain SEQ ID NO: 115 (antibody)
heavy: B3 heavy with E73D, N77S
light: B3 light
modifications: heavy chain; light chain
B5: hz3F10-5.2: humanized anti-CD47 antibody, heavy chain SEQ ID NO: 149, light chain SEQ ID NO: 151 (antibody)
heavy: B3 heavy
light: B3 light with L48W, D71S, F72Y, E94D
modifications: heavy chain; light chain
B6: hz3F10-1.1: humanized anti-CD47 antibody, heavy chain SEQ ID NO: 109, light chain SEQ ID NO: 111 (antibody)
heavy: B3 heavy with E73D, N77S
light: B3 light with E94D
modifications: heavy chain; light chain
B7: hz3F10-6.2: humanized anti-CD47 antibody, heavy chain SEQ ID NO: 153, light chain SEQ ID NO: 155 (antibody)
heavy: B3 heavy
light: B3 light with L48W, D71S, F72Y
modifications: heavy chain; light chain
B8: hz3F10-3.1: humanized anti-CD47 antibody, heavy chain SEQ ID NO: 117, light chain SEQ ID NO: 119 (antibody)
heavy: B3 heavy with E73D, N77S
light: B3 light with D71S, F72Y, E94D
modifications: heavy chain; light chain
B9: hz3F10-4.2: humanized anti-CD47 antibody, heavy chain SEQ ID NO: 145, light chain SEQ ID NO: 147 (antibody)
heavy: B3 heavy
light: B3 light with D71S, F72Y
modifications: heavy chain; light chain
B10: hz3F10-3.2: humanized anti-CD47 antibody, heavy chain SEQ ID NO: 141, light chain SEQ ID NO: 143 (antibody)
heavy: B3 heavy
light: B3 light with D71S, F72Y, E94D
modifications: heavy chain; light chain

Substitutions are numbered along the chain they refer to.

Tested on in the first data set: not listed separately
Kind of data set: Thermostability assay based on Nano DSF (Prometheus NT.48). It is filed as physicochemical.
Conditions: not given
The procedure:
The high-throughput protein stability analyzer Prometheus NT.48 is an instrument for acquiring various types of data such as protein molecular structure stability, aggregation stability, and colloid dispersion stability. The melting temperatures (Tm) and the aggregation temperatures (Tagg) of the anti-CD47 chimeric antibodies and the anti-CD47 humanized antibodies were determined using this instrument.
With B1, the “Tagg (aggregation temperature)” value turned out to be 61.87 °C and the “Tm (melting temperature)” value was 68.21 °C.

With B2, the “Tagg (aggregation temperature)” value is 61.84 °C and the “Tm (melting temperature)” value was determined as 69.20 °C.

In the case of B3, the “Tagg (aggregation temperature)” value amounted to 62.40 °C and the “Tm (melting temperature)” value came out at 68.92 °C.

With B4, the “Tagg (aggregation temperature)” value worked out at 72.68 °C and the “Tm (melting temperature)” value amounted to 68.44 °C.

For B5, the “Tagg (aggregation temperature)” value is 62.67 °C and the “Tm (melting temperature)” value is 68.69 °C.

As for B6, the “Tagg (aggregation temperature)” value was found to be 72.68 °C and the “Tm (melting temperature)” value came out at 68.44 °C.

For B7, the “Tagg (aggregation temperature)” value came out at 61.91 °C and the “Tm (melting temperature)” value is 68.64 °C.

Regarding B8, the “Tagg (aggregation temperature)” value is 61.53 °C and the “Tm (melting temperature)” value came to 68.15 °C.

On to B9, for which the “Tagg (aggregation temperature)” value turned out to be 61.13 °C and the “Tm (melting temperature)” value is 68.48 °C.

With B10, the “Tagg (aggregation temperature)” value was 61.80 °C and the “Tm (melting temperature)” value is 68.30 °C.

A further data set has as its system HL60 cells. In words: Promotion of macrophage phagocytosis of tumor cells (flow cytometry). Format: cell-based, human. To be noted: 1 μg/mL antibody, CFSE-labeled HL60 cells, human macrophages. How it is done: The ability of the anti-CD47 antibodies to promote the phagocytosis of tumor cells by macrophages having SIRPα on the cell surface was determined based on flow cytometry.
Monocytes were isolated from human peripheral blood mononuclear cells (PBMC, Sailybio, Cat. No. 190056) using a monocyte isolation kit ([…], Cat. No. 19058), plated into a 24-well plate (Greiner bio-one, Cat. No. 662-160) at […] cells per well, and induced under 100 ng/mL stimulating factor M-CSF (R&D Systems, Cat. No. 216-MC-010) for 7 days to form macrophages. 1×10^6 target cells HL60 (Shanghai Institute of Biochemistry and Cell Biology, Chinese Academy of Sciences, Cat. No. TCHu23) were suspended in […] CFSE (BD Biosciences, Cat. No. 565082) fluorescent dye (diluted with a PBS buffer to the desired concentration), incubated in a water bath at 37° C. in the dark for 15 min, and washed with a PBS buffer to prepare CFSE-labeled HL60 cells, which were then incubated with each of 10 μg/mL and 1 μg/mL anti-CD47 antibodies (see Table 3 for chimenic antibodies, and see Table 4 for humanized antibodies) in an incubator at 37° C. with 5% CO2 for 1-2 h. The HL60 cells after the incubation were washed three times with a PBS buffer and added to the macrophages. The cells were incubated in an incubator at 37° C. with 5% CO2 for 2-4 h. After the cells were washed three times with a PBS buffer, a mixture of 1260 μL of PBS, 20 μL of anti-APC-CD14 (APC MouseAnti-Human CD14, BD Biosciences, Cat. No. 555399), and 20 μL of PE-CD11b (PE Mouse Anti-Human CD11b/1Mac-1, BD Biosciences, Cat. No. 555388) antibody was added to each well. The cells were incubated at 4° C. in the dark for 30 min, washed three times with a PBS buffer, and digested with trypsin (Gibco, Cat. No. 12604-013). The rate of phagocytosis (%) by the macrophages was determined using a flow cytometer (BD Biosciences, model: C6).
(In general: A flow cytometer gives signals particle by particle.)
As to B1, the rate of phagocytosis was 14.79%.

For B2, the rate of phagocytosis came out at 6.37%.

With B3, the rate of phagocytosis is 44.19%.

B4 had a rate of phagocytosis of 47.24%.

Regarding B5, the rate of phagocytosis is 47.06%.

For B6, the rate of phagocytosis was found to be 41.25%.

Consider B7, for which the rate of phagocytosis is 49.32%.

The molecule B8 yielded a rate of phagocytosis of 50.60%.

With B9, the rate of phagocytosis was 46.24%.

In turn, B10 showed a rate of phagocytosis of 47.04%.

The data set is the same for the next values; noted with them: 10 μg/mL antibody, CFSE-labeled HL60 cells, human macrophages.
Turning to B1, the rate of phagocytosis is reported as 4.02%.

Consider B2, for which the rate of phagocytosis is recorded as 24.19%.

For the molecule B3, the rate of phagocytosis stood at 34.72%.

B4 yielded a rate of phagocytosis of 55.23%.

B5 displayed a rate of phagocytosis of 29.6%.

As for B6, the rate of phagocytosis was found to be 43.10%.

B7 registered a rate of phagocytosis of 44.19%.

B8 gave a rate of phagocytosis of 58.72%.

With B9, the rate of phagocytosis is recorded as 31.67%.

In the case of B10, the rate of phagocytosis came to 37.09%.
